Values marked as one replicate rest on one cluster of the flow cell; about a third of the high ones do not repeat.
Each sequence was assayed on ATP (assay: switch fluorescence ratio, 500 uM ATP over buffer (Cy3 cluster intensity, sum of 5 cycles each) (fold (ratio)); higher = stronger signal-on switching upon ATP binding; sequences stand for … in TCGTCGGCAGCGTCAGATGTGTATAAGAGACAGTTTTTTTTTTTTTTTTTTTTTTTTT…TC). Settings: aptamer strand: ATP DNA aptamer (quencher-CACCTGGGGGAGTATTGCGGAGGAAGG + anchor), 100 nM annealed; ATP concentration: 500 uM; one replicate.
In short: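 Cy3-labelled switching-strand clusters on a modified Illumina MiSeq flow-cell were annealed to 100 nM quencher-labelled ATP aptamer, imaged in selection buffer, then imaged after 15 min with 500 uM ATP at 22 °C. Five buffer/ATP cycles ran, with NaOH stripping and re-annealing between them. The fluorescence ratio is summed target-cycle over summed buffer-cycle Cy3 intensity per cluster, averaged per switch-domain sequence. Clusters outside 100-1000 RFU were excluded.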
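Note: ATP exposure 15 min at 22 °C before imaging.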

| Sequence | switch fluorescence ratio |
| --- | --- |
| ATAAATTGAT | 0.995 |
| ATAACAGTCC | 1.06 |
| ATAACCGTGA | 1.06 |
| ATAACCTGCG | 1.29 |
| ATAACGCCT | 1.03 |
| ATAACGCGCT | 1 |
| ATAACGGTCG | 0.939 |
| ATAACTTCC | 3.43 |
| ATAAGAGAGG | 0.96 |
| ATAAGATCGG | 0.954 |
| ATAAGCGCTG | 1.08 |
| ATAAGGAGG | 0.957 |
| ATAAGGCGTA | 1.06 |
| ATAAGGGTCT | 0.925 |
| ATAAGGGTGG | 0.953 |
| ATAAGGTGCA | 1.06 |
| ATAAGTAGCT | 1.03 |
| ATAAGTGGTA | 0.977 |
| ATAATAAATA | 0.991 |
| ATAATAGAAG | 0.973 |
| ATAATATTTA | 1.01 |
| ATAATCAGGA | 1.03 |
| ATAATCTC | 1.01 |
| ATAATCTTTT | 1 |
| ATAATGAGGG | 0.986 |

| Sequence | switch fluorescence ratio |
| --- | --- |
| ATAATGATTC | 1.01 |
| ATAATGGACT | 1 |
| ATAATGGTTC | 0.949 |
| ATAATTTCTC | 0.977 |
| ATACAGCATG | 1.01 |
| ATACAGGCGT | 1.03 |
| ATACATGAGC | 0.935 |
| ATACATGCA | 0.994 |
| ATACATTGTG | 0.991 |
| ATACCCGGGT | 1.02 |
| ATACCCTGTA | 1.02 |
| ATACCGCGTG | 1.01 |
| ATACCGTCCG | 1.08 |
| ATACGAAAGC | 1.21 |
| ATACGAGACC | 1.22 |
| ATACGGGCGT | 0.998 |
| ATACGGTCCA | 1.07 |
| ATACGGTGTG | 1.01 |
| ATACGTAGAA | 1.09 |
| ATACGTATTA | 1.09 |
| ATACGTGCG | 0.973 |
| ATACGTGTGC | 0.999 |
| ATACTAACAA | 1.08 |
| ATACTACGCC | 1.42 |
| ATACTAGCAG | 1.01 |

| Sequence | switch fluorescence ratio |
| --- | --- |
| ATACTAGGCT | 0.948 |
| ATACTCTCAA | 1.02 |
| ATACTGAACC | 1.25 |
| ATACTGTCAA | 1.02 |
| ATACTTGGGT | 1 |
| ATACTTGTTG | 0.953 |
| ATAGAAAGA | 1.03 |
| ATAGAGAGTC | 0.956 |
| ATAGAGTCTG | 0.997 |
| ATAGCCCAGG | 2.6 |
| ATAGCTGTA | 0.892 |
| ATAGGAACAT | 0.984 |
| ATAGGAGGTT | 1 |
| ATAGGCAACC | 1.07 |
| ATAGGCGTGG | 0.987 |
| ATAGGGCAGA | 0.995 |
| ATAGGGGAGA | 1.01 |
| ATAGGTCTCC | 1.03 |
| ATAGGTGTG | 0.983 |
| ATAGTAGCGG | 1.04 |
| ATAGTCGGTA | 1 |
| ATAGTCTGAG | 0.99 |
| ATAGTGCCCG | 0.997 |
| ATAGTTAACC | 1.06 |
| ATAGTTAGAT | 0.988 |

| Sequence | switch fluorescence ratio |
| --- | --- |
| ATAGTTCTAG | 1.01 |
| ATAGTTCTCG | 1.01 |
| ATAGTTGATT | 0.958 |
| ATAGTTGTCT | 0.985 |
| ATAGTTTAAT | 1.02 |
| ATAGTTTTAC | 0.967 |
| ATATAAAAT | 1.28 |
| ATATACACAA | 1.07 |
| ATATACCGGG | 0.993 |
| ATATACTCAA | 1.03 |
| ATATAGCGGA | 0.993 |
| ATATAGCTGC | 1.01 |
| ATATCACAAC | 1.02 |
| ATATCAGGTC | 1.06 |
| ATATCATGCG | 0.986 |
| ATATCCGGGG | 1.01 |
| ATATCCTGGT | 0.971 |
| ATATCGAAAA | 0.974 |
| ATATCGATAC | 1.54 |
| ATATCGGGAA | 1.01 |
| ATATCGTAGC | 0.971 |
| ATATCTATCA | 0.959 |
| ATATCTGATG | 0.96 |
| ATATCTGCAT | 1.08 |
| ATATGACCTA | 1 |
